Source: the supplement of paper PMC9433436
± gives the standard deviation of the averaged measurements. In all, about 4,100 sequences were measured (“relative kcat/Km (krel) vs genomic leader AAAGAU”: median about 1.7, highest 2% from about 6.5 on). This is a selection; strong and weak results do not stand in their true shares.

Target: T1, E. coli RNase P holoenzyme (M1 P RNA + rnpA protein) (UniProt P0A7Y8)
T1 sequence: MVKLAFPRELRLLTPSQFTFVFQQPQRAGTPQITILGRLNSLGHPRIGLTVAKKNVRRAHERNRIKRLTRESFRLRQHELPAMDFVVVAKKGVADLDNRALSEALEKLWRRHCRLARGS
Experiment: relative kcat/Km (krel) vs genomic leader AAAGAU (relative (reference leader = 1)); higher = faster RNase P cleavage
Procedure: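 HTS-Kin: a pool of ptRNA-Met (21C construct) with all 4096 combinations of 5' leader nucleotides N(-6) to N(-1) was processed in vitro by E. coli RNase P (P RNA + rnpA/C5 protein) under multiple-turnover conditions at 37 C, pH 8, 17.5 mM MgCl2. Residual substrate was Illumina-sequenced at several fractions reacted, and relative kcat/Km (krel) was computed by internal competition kinetics, calibrated to the genomic leader (AAAGAU = 1). The listed hexamer is the varied N(-6)..N(-1) leader (DNA letters), and it sits between a fixed 5' stem-loop flank (GCAUGCACGAAAGUGCGUGCUAUGAA) and the mature tRNA-Met starting GGCUACGUAGCUCAGUUGG. Two technical replicates are averaged.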

[1] = fraction of substrate reacted: ~26-29% (28.66% repeat 1, 26.4% repeat 2)
[2] = fraction of substrate reacted: ~9-10% (9.79% repeat 1, 9.1% repeat 2)
[3] = fraction of substrate reacted: ~13-16% (15.68% repeat 1, 13.17% repeat 2)

| Sequence | relative kcat/Km [1] | relative kcat/Km [2] | relative kcat/Km [3] |
| --- | --- | --- | --- |
| TGCCGG | 0.718 ± 0.11 | – | – |
| CGCGGA | 1.41 ± 0.58 | 1.5 ± 1.2 | 1.39 ± 0.29 |
| GTTAAC | 4.84 ± 1.6 | 3.21 ± 1.1 | 3.47 ± 0.18 |
| CGGCGA | 1.36 ± 0.19 | 1.47 ± 0.21 | 1.16 ± 0.3 |
| CTTGCG | 0.729 ± 0.19 | – | – |
| TTACTT | 3.42 ± 1.6 | 2.24 ± 1.1 | 2.21 ± 0.15 |
| GCCGAT | 2.69 ± 0.74 | 1.96 ± 0.66 | 1.9 ± 0.9 |
| CGAAAG | 1.64 ± 0.03 | 1.8 ± 1.7 | 0.89 ± 0.88 |
| CTAGCG | 0.491 ± 0.019 | – | – |
| AGATAC | 5.84 ± 2.6 | 3.55 ± 1.8 | 3.83 ± 0.48 |
| TAAAGC | 2.77 ± 1.1 | 2.12 ± 0.83 | 2.48 ± 0.17 |
| TAGCGA | 2.83 ± 1 | 2.91 ± 2.3 | 2.5 ± 0.29 |
| CAGCTT | 2.33 ± 0.38 | 2.22 ± 1.1 | 1.55 ± 0.38 |
| CCCGTG | 1.07 ± 0.64 | 0.509 ± 0.028 | – |
| AGTGCA | 1.74 ± 0.072 | 1.79 ± 1.6 | 1.47 ± 0.1 |
| GTCGAA | 8.71 ± 2.8 | 4.23 ± 1.8 | 5.6 ± 0.65 |
| GTCCAG | 5.48 ± 2 | 2.58 ± 1 | 2.9 ± 0.5 |
| GTGTCA | 1.49 ± 0.16 | 1.15 ± 0.97 | 0.779 ± 0.57 |
| GAAGGA | 1.11 ± 0.87 | – | – |
| TCGCTG | 1.37 ± 0.99 | – | – |
| GGTTGA | 2.01 ± 0.83 | 1.13 ± 0.057 | 1.16 ± 0.42 |
| CTTTCA | 2.86 ± 0.99 | 2.49 ± 1.1 | 2.19 ± 0.62 |

| Sequence | relative kcat/Km [1] | relative kcat/Km [2] | relative kcat/Km [3] |
| --- | --- | --- | --- |
| AGGGGC | 1.32 ± 0.94 | – | – |
| GTGTAG | 1.71 ± 0.18 | – | – |
| GAAATC | 1.2 ± 0.25 | 0.5 ± 0.22 | 1.03 ± 0.073 |
| GCTCAT | 2.74 ± 0.71 | 1.68 ± 0.42 | 1.68 ± 0.55 |
| TTCACC | 8.13 ± 3 | 3.91 ± 1.2 | 5.63 ± 0.6 |
| GTCGGA | 1.51 ± 1.2 | – | 1.67 ± 1.1 |
| ATGTTG | 0.642 ± 0.16 | – | – |
| CTAAAT | 3.31 ± 0.94 | 2.52 ± 1 | 2.65 ± 0.47 |
| CCCAAA | 5.25 ± 1.7 | 3.49 ± 1.1 | 3.56 ± 0.29 |
| GCGACT | 0.962 ± 0.14 | 1.1 ± 0.32 | 0.524 ± 0.19 |
| TTCATA | 8.54 ± 3.2 | 4.76 ± 2.5 | 6.15 ± 0.55 |
| TACTGA | 5.98 ± 2.2 | 3.12 ± 0.15 | 4.47 ± 1.6 |
| TTAACC | 1.59 ± 0.1 | – | 1.35 ± 0.042 |
| GGGGAG | 0.768 ± 0.06 | – | – |
| CCGAGA | 2.53 ± 1 | – | 1.76 ± 1.6 |
| TTTGCC | 2.42 ± 0.16 | 1.81 ± 0.95 | 1.79 ± 0.37 |
| CGGGAC | 1.3 ± 0.081 | 1.65 ± 1.2 | 1.46 ± 0.34 |
| ATTCAT | 5.56 ± 2.2 | 2.95 ± 1.6 | 3.71 ± 0.32 |
| GGTCCC | 1.2 ± 0.051 | 0.843 ± 0.49 | 0.971 ± 0.18 |
| CCCTAA | – | 3.68 ± 0.17 | 4.41 ± 1.4 |
| CAAGGC | 0.702 ± 0.41 | – | – |
| GTACCG | 1.02 ± 0.44 | – | – |

| Sequence | relative kcat/Km [1] | relative kcat/Km [2] | relative kcat/Km [3] |
| --- | --- | --- | --- |
| TGATCC | 3.26 ± 1.2 | 2.04 ± 0.87 | 2.73 ± 0.15 |
| AGCTGT | 1.37 ± 1.3 | 1.29 ± 0.36 | 1.23 ± 1.1 |
| CGTAGA | 5.26 ± 1.7 | 2.87 ± 1.5 | 3.11 ± 0.054 |
| AACTAT | 6.43 ± 3.1 | 3.41 ± 0.78 | 4.44 ± 0.83 |
| CGGCAT | 1.44 ± 0.48 | 1.21 ± 0.2 | 1.34 ± 0.02 |
| TTATCC | 3.66 ± 1.5 | 2.58 ± 0.95 | 2.79 ± 0.23 |
| TGATCG | 2.2 ± 0.42 | – | 0.747 ± 0.12 |
| TTGGCT | 1.04 ± 0.94 | – | 0.912 ± 0.62 |
| TTCACT | 7.57 ± 3.1 | 4.07 ± 1.2 | 5.27 ± 1.4 |
| CGTTCG | 1.651 ± 0.0032 | 1.02 ± 0.66 | – |
| GGTAGC | 2.88 ± 1.1 | 1.74 ± 0.093 | 1.36 ± 0.45 |
| GAATGG | 0.867 ± 0.12 | 0.451 ± 0.32 | – |
| CTTGAC | 4.06 ± 0.98 | 2.3 ± 0.27 | 3.13 ± 1.7 |
| CTTTTC | 3.02 ± 0.83 | 1.94 ± 0.99 | 1.89 ± 0.45 |
| CATCGC | 5.21 ± 1.9 | 2.84 ± 0.85 | 3.69 ± 0.25 |
| GTGCTG | 0.51 ± 0.48 | – | – |
| TAGTTG | 1.33 ± 0.37 | – | – |
| GTTCGG | 0.742 ± 0.18 | – | – |
| TGCTCG | 1.71 ± 0.051 | 0.457 ± 0.37 | – |
| AGATTC | 3.74 ± 1.6 | 2.65 ± 0.82 | 2.57 ± 0.67 |
| AAAATG | 0.793 ± 0.38 | – | – |
| GTTAAG | 2.65 ± 0.77 | – | 1.6 ± 0.16 |

| Sequence | relative kcat/Km [1] | relative kcat/Km [2] | relative kcat/Km [3] |
| --- | --- | --- | --- |
| TTTTAG | 4.51 ± 1.2 | 3.3 ± 2.5 | 2.5 ± 0.78 |
| CTTAGA | 4.79 ± 1.7 | 3.03 ± 0.85 | 3.18 ± 0.44 |
| AACTCC | 4.38 ± 1.3 | 3 ± 2.2 | 3.3 ± 0.49 |
| TCAGCG | 0.852 ± 0.32 | – | – |
| AATAAC | 3.66 ± 1.1 | 2.46 ± 1.3 | 2.86 ± 0.11 |
| CCGTTC | 3.54 ± 0.68 | 2.74 ± 1.7 | 2.34 ± 0.28 |
| GACTCA | 5.69 ± 2.1 | 3.33 ± 1.5 | 4.56 ± 0.1 |
| GTTATT | 3.9 ± 1.9 | 1.78 ± 0.16 | 2.68 ± 0.28 |
| ATTTTA | 3.11 ± 1.1 | 2.22 ± 0.48 | 2.43 ± 0.12 |
| AGGGAG | 0.775 ± 0.073 | – | – |
| CAGGCG | – | 0.776 ± 0.41 | – |
| GTAGAT | 2.1 ± 0.79 | 1.19 ± 0.47 | 1.41 ± 0.04 |
| TACGAT | 3.63 ± 1.5 | 2.93 ± 1.5 | 2.79 ± 0.68 |
| TGGCAT | 1.26 ± 0.7 | – | – |
| CTCACT | 5.38 ± 1.7 | 3.55 ± 1.3 | 3.5 ± 0.33 |
| TGACCT | 2.09 ± 0.76 | 1.91 ± 0.94 | 1.72 ± 0.11 |
| AACGAT | 1.68 ± 0.58 | 1.34 ± 0.68 | 1.53 ± 0.49 |
| ACGAAC | 3.33 ± 1.3 | 2.86 ± 1.4 | 2.57 ± 0.6 |
| GGCTCG | 1.597 ± 0.0082 | 1.09 ± 0.45 | 0.455 ± 0.17 |
| CTTACC | 2.28 ± 0.67 | 1.75 ± 0.076 | 1.78 ± 0.38 |
| CGACCT | 2.11 ± 0.77 | 1.28 ± 0.024 | 1.86 ± 0.38 |
| TCTGTC | 2.09 ± 0.85 | 1.29 ± 0.12 | 1.05 ± 0.53 |

| Sequence | relative kcat/Km [1] | relative kcat/Km [2] | relative kcat/Km [3] |
| --- | --- | --- | --- |
| GCCCGC | 4.32 ± 1.4 | 2.491 ± 0.012 | 2.89 ± 1.8 |
| GACCAG | 3.13 ± 0.57 | – | 0.798 ± 0.15 |
| AGGATC | 1.18 ± 0.84 | 0.543 ± 0.0099 | 1.07 ± 0.2 |
| ACAGTC | 1.71 ± 0.69 | 1.18 ± 0.77 | 1.42 ± 0.41 |
| GCTCAA | 1.88 ± 0.14 | 1.41 ± 0.98 | 1.24 ± 0.71 |
| TGAAGG | 0.667 ± 0.34 | 0.0917 ± 0.075 | – |
| GGAGAT | 2.1 ± 0.62 | 1.79 ± 0.18 | 1.53 ± 0.24 |
| TAGTGA | 3.06 ± 1.1 | 1.59 ± 0.54 | 1.54 ± 0.78 |
| ATCTAG | 5.72 ± 2.4 | 2.49 ± 0.96 | 3.16 ± 1 |
| GAATGA | 4.36 ± 1.5 | 2.12 ± 0.48 | 3.32 ± 1.1 |
| GGATAG | 2.68 ± 0.8 | 1.13 ± 0.12 | 1.11 ± 0.16 |
| ACACTC | 2.74 ± 0.89 | 1.93 ± 1.6 | 1.9 ± 0.66 |
| CGCATG | 1.43 ± 0.34 | – | – |
| AATATT | 2.97 ± 1.1 | 2.25 ± 1.6 | 2.08 ± 0.12 |
| ATTACG | 1.45 ± 0.32 | – | – |
| ATCAAG | 3.87 ± 0.91 | – | 1.96 ± 0.14 |
| AAGTTA | 2.63 ± 1.1 | 1.8 ± 0.12 | 2.04 ± 0.28 |
| TAGCAA | 3.82 ± 1.1 | 3.45 ± 2.1 | 2.89 ± 0.52 |
| GGTGCT | 0.728 ± 0.13 | 0.671 ± 0.2 | – |
